{"source": "paper PMC6919601", "about": "“Identification of Plasmodium dipeptidyl aminopeptidase allosteric inhibitors by high throughput screening” (PLoS ONE, 2019)", "note": "Screen size: about 110,000 compounds; about 230 (0.21%) showed an effect of 50% or more. The list shows a part of the results.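 Further: 30 min substrate incubation versus DMSO and 10 µM JCP410 controls.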"}
{"biological_target": "DPAP1 (Plasmodium falciparum, UniProt Q8IIJ9)", "sequence (Q8IIJ9 whole entry, looked up)": "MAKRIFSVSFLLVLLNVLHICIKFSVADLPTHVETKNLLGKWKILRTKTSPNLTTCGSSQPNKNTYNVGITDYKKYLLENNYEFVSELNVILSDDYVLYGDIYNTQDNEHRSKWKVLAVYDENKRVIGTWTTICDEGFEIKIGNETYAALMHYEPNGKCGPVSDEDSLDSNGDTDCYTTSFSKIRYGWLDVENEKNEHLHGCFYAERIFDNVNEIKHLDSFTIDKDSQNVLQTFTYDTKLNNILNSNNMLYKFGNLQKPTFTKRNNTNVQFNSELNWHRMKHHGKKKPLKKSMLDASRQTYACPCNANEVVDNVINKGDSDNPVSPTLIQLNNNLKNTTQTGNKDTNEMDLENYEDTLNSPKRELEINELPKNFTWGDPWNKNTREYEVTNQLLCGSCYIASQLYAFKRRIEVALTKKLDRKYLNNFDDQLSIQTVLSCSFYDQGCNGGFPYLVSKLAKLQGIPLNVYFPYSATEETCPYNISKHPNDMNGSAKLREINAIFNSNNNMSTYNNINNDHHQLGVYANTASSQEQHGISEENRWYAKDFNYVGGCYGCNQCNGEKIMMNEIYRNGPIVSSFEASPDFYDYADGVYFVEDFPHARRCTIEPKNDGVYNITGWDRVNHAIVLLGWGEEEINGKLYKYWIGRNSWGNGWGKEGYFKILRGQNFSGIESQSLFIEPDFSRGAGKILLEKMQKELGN", "test": "primary screen, percent inhibition; read by cleavage of a fluorogenic dipeptide substrate; higher = more effect of the substance", "design": "species or system P. falciparum D10 trophozoite lysates; single well", "units": {"% Inhibition @ 10 uM": "%"}}
{"smiles": "Cc1ccc(C(=O)C2=C(O)C(=O)N(CCCn3ccnc3)C2c2cccc(F)c2)cc1", "note": "(centres unmarked)", "% Inhibition @ 10 uM": -3.23}
{"smiles": "CCOc1cc(/C=C2/C(=N)N3OC(C)=CC3=NC2=O)ccc1OCc1ccccc1Cl", "% Inhibition @ 10 uM": -3.23}
{"smiles": "O=C(NCCc1ccc(F)cc1)C1c2ccccc2Oc2ccccc21", "% Inhibition @ 10 uM": -3.14}
{"smiles": "O=C(NCc1cccc(Cl)c1)C1CCN(c2nc3ccccc3n3cccc23)CC1", "% Inhibition @ 10 uM": 3.44}
{"smiles": "CCOc1cc(/C=C2/NC(=O)N(Cc3ccc(C)cc3)C2=O)ccc1OC", "% Inhibition @ 10 uM": 5.66}
{"smiles": "O=C(/C=C/c1cccc([N+](=O)[O-])c1)N1CCOCC1", "% Inhibition @ 10 uM": 1.35}
{"smiles": "COc1cccc2c1cc1c(=O)n(CC(=O)NCC(C)c3ccccc3)nc(C)n12", "note": "(centres unmarked)", "% Inhibition @ 10 uM": -1.7}
{"smiles": "Cc1nn(-c2ccccc2)c(-n2cccc2)c1C(=O)NCC1CCCO1", "note": "(centres unmarked)", "% Inhibition @ 10 uM": 0.137}
{"smiles": "COc1ccc(Cl)cc1-n1nnc(S(=O)(=O)c2ccc(C)cc2)c1C", "% Inhibition @ 10 uM": -7.62}
{"smiles": "COc1cccc(NC2(c3nnnn3-c3c(C)cccc3C)CCCC2)c1", "% Inhibition @ 10 uM": -8.3}
{"smiles": "CC(=O)Nc1nc2c(s1)CC(C(C)(C)C)CC2", "note": "(centres unmarked)", "% Inhibition @ 10 uM": -2.65}
{"smiles": "O=C(c1ccc(F)cc1)N1CCN(c2ccc(Cl)cc2)CC1", "% Inhibition @ 10 uM": -2.17}
{"smiles": "Cc1ccc2[nH]c(-c3cccc([N+](=O)[O-])c3)nc2c1", "% Inhibition @ 10 uM": 2.76}
{"smiles": "CSc1nc(Oc2ccc(C)c(C)c2)cc(-n2ncc(C(N)=O)c2N)n1", "% Inhibition @ 10 uM": -0.116}
{"smiles": "CCN(CC)CCC/N=c1/c(-c2ccc(C(C)C)cc2)c(O)c1=O", "% Inhibition @ 10 uM": -5.3}
{"smiles": "CCN(CC)c1ccc(/C=C2\\SC(Nc3ccc(F)cc3)=NC2=O)o1", "% Inhibition @ 10 uM": 12.1}
{"smiles": "CC(=O)c1ccc(N2CCN(Cc3ccccc3Cl)CC2)cc1", "% Inhibition @ 10 uM": 4.55}
{"smiles": "COc1ccc(Cl)cc1N(CC(=O)N1CCN(C)CC1)S(C)(=O)=O", "% Inhibition @ 10 uM": 3.74}
{"smiles": "Cc1ccccc1OCC(=O)Nc1nc(C)c(C(=O)N(C)C)s1", "% Inhibition @ 10 uM": -1.28}
{"smiles": "COc1cccc(C2=NN(C(=O)C3CC3)C(O)(C(F)(F)F)C2)c1", "note": "(centres unmarked)", "% Inhibition @ 10 uM": -6.17}
{"smiles": "Clc1ccc(OCCOCCN2CCCCC2)cc1", "% Inhibition @ 10 uM": -1.82}
{"smiles": "CCN(Cc1ccccc1)C(=O)COc1ccccc1", "% Inhibition @ 10 uM": -5.92}
{"smiles": "c1ccc2sc(N3CCOCC3)nc2c1", "% Inhibition @ 10 uM": -2.78}
{"smiles": "CCN1CCN(CCCNC(=O)c2oc3c(c2C)-c2nn(Cc4ccccc4Cl)cc2CC3)CC1", "% Inhibition @ 10 uM": 9.55}
{"smiles": "O=C(Cn1cc(S(=O)(=O)Cc2ccccc2F)c2ccccc21)NCCc1ccccc1", "% Inhibition @ 10 uM": 0.458}
{"smiles": "O=C(NCCCN1CCOCC1)Nc1noc2c1COc1ccccc1-2", "% Inhibition @ 10 uM": -2.57}
{"smiles": "CCOC(=O)c1[nH]c2ccc(OC)cc2c1NC(=S)N1CCN(C(=O)c2ccco2)CC1", "% Inhibition @ 10 uM": 0.351}
{"smiles": "COC1CCCCC1NCCc1ccc(Cl)cc1Cl", "note": "(centres unmarked)", "% Inhibition @ 10 uM": -1.54}
{"smiles": "Cc1ccccc1Cc1c(C)nc2c(C(=O)NCCc3ccc(Cl)cc3)cnn2c1C", "% Inhibition @ 10 uM": -5.8}
{"smiles": "COc1ccc(C2C(C#N)=C(C)N(C)C3=C2C(=O)c2ccccc23)cc1", "note": "(centres unmarked)", "% Inhibition @ 10 uM": -4.67}
{"smiles": "COc1cccc(/C=C(\\C#N)c2nc3cc(C)ccc3[nH]2)c1OC", "% Inhibition @ 10 uM": -2.07}
{"smiles": "O=C(CNS(=O)(=O)c1cc(Cl)ccc1Cl)N1CCN(c2ccccc2F)CC1", "% Inhibition @ 10 uM": -4.14}
{"smiles": "O=C1C2C(C(=O)N1c1ccc3ccccc3c1)C1C=CC2C12CC2", "note": "(centres unmarked)", "% Inhibition @ 10 uM": -3.26}
{"smiles": "COC(=O)c1sccc1NC(=O)CSCCc1ccncc1", "% Inhibition @ 10 uM": -4.17}
{"smiles": "Cc1ccc(S(=O)(=O)Nc2nc(N)n(-c3ccccc3)n2)cc1", "% Inhibition @ 10 uM": 2.56}
{"smiles": "CC(C)CC(C(=O)NCC#N)c1cccc(-c2cccc(S(=O)(=O)N3CCN(C)CC3)c2)c1", "note": "(centres unmarked)", "% Inhibition @ 10 uM": -4.72}
{"smiles": "CCN(CC)C(=O)c1sc2nc3n(c(=O)c2c1C)CCCCC3", "% Inhibition @ 10 uM": -4.11}
{"smiles": "CCCCNc1nc2c(S(=O)(=O)c3ccccc3)nnn2c2ccccc12", "% Inhibition @ 10 uM": -14.7}
{"smiles": "CCCCc1ccc(-c2c(C#N)c(N)nc3c2CCCCC3)s1", "% Inhibition @ 10 uM": 7.56}
{"smiles": "Cc1cccc(OCCn2c(=O)n(C)c3ccccc32)c1", "% Inhibition @ 10 uM": 1.67}
{"smiles": "CCc1ccc(C(=O)NCC2(c3ccccc3)CCOCC2)o1", "% Inhibition @ 10 uM": 2.95}
{"smiles": "Cc1ccc(S(=O)(=O)NC(=O)Nc2cccc(Cl)c2C)cc1", "% Inhibition @ 10 uM": 5.66}
{"smiles": "CC(NCC1CCCCC1)c1ccccc1", "note": "(centres unmarked)", "% Inhibition @ 10 uM": 0.722}
{"smiles": "CCOc1ccccc1/C=C(\\C#N)c1nc2cc(C)ccc2[nH]1", "% Inhibition @ 10 uM": -2.28}
{"smiles": "CCCc1nn(-c2ccc(F)cc2)c(O)c1/C=N/Cc1ccco1", "% Inhibition @ 10 uM": 2.18}
{"smiles": "COC(=O)c1sccc1NC(=O)C1=C(C)C(=O)OC12CCN(C(C)=O)CC2", "% Inhibition @ 10 uM": 2.37}
{"smiles": "Cc1ccccc1OCCCCN1CCOCC1", "% Inhibition @ 10 uM": -5.94}
{"smiles": "C=CCn1c(S)nnc1-c1cccc(C)c1", "% Inhibition @ 10 uM": -2.35}
{"smiles": "CN(Cc1ccco1)C(=O)c1nc(-c2ccncc2)no1", "% Inhibition @ 10 uM": -6.66}
{"smiles": "CCOC(=O)CNC(=O)c1ccsc1", "% Inhibition @ 10 uM": 3.83}
